Test results from PubChem BioAssay AID624170 (National Center for Advancing Translational Sciences (NCATS), 2012).
About 850 (0.21%) of roughly 410,000 compounds were called active. The shares of active, inactive and inconclusive entries below differ from those in the screen. The call rests on the fitted dose curve; in most records, active means well fitted inhibition curve with a large enough effect; inconclusive means small, poorly fitted or top-dose-only effect, or another doubt; inactive means no such curve, though single readings can be large or run the other way. Potencies of inconclusive entries are doubtful fits and often do not repeat.

Biological target: Glutaminase kidney isoform, mitochondrial (Homo sapiens) (UniProt O94925)
Chain of UniProt O94925 (O94925 whole entry, looked up, canonical isoform): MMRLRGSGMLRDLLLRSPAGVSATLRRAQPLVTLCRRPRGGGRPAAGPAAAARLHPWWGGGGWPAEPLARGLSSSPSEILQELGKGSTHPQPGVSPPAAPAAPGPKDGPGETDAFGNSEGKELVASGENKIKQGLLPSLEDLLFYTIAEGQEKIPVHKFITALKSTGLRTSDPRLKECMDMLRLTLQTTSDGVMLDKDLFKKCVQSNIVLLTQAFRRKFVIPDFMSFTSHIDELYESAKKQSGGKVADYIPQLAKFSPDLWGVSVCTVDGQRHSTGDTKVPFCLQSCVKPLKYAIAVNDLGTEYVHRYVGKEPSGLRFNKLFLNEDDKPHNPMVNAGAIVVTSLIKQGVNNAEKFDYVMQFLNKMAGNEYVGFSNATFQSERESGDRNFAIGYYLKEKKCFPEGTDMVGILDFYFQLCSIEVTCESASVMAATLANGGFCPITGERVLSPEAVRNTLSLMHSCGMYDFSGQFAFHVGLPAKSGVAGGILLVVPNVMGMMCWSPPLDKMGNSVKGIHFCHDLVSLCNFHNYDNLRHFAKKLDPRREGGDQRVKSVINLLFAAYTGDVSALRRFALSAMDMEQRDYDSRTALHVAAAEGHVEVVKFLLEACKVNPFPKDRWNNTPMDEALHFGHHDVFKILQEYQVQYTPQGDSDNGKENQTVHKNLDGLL
Experiment: qHTS for Inhibitors of Glutaminase (GLS)
Conditions: GLS enzymatic activity, qHTS titration; series mostly up to 45.5 µM; activity change, negative = inhibition: at the top concentration
In short: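 Compounds were pin-transferred onto hKGA, after which L-glutamine (1 mM solution) and a detection mix of glutamate oxidase, HRP and Amplex Red were added. Initial and 30 min RT fluorescence reads were collected.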
On the % scale 0 is the no-effect control and ±100 the full control effect; potency means the concentration at half of the fitted maximal effect; tags describe the fitted curve by direction and shape.

Activity change, negative = inhibition, inactive:
O=C(CSc1nnc(SCc2ccc(Cl)cc2)s1)N/N=C/c1c(Cl)cccc1Cl -2.7%
COCc1cc(=O)n2[nH]c(SC)nc2n1 0.55%
CC(=O)NNC(=S)NC(=O)c1ccc(C)cc1 -0.306%
CCN1CCN(c2cc3c(cc2F)c(=O)c(S(=O)(=O)c2ccc(OC)cc2)cn3CC)CC1 -1.3%
CSCCC(=O)Nc1ccc(C(C)=O)cc1 0.319%
N#C/C(C(=O)Nc1ccc(Cl)cc1)=C(/S)Nc1ccccc1 25.7%
CN(C)/C=N/c1nc2nccc(-c3cccc(Cl)c3)n2n1 -3.28%
N#CC(C#N)=C(N)/C(C#N)=C/c1cc(O)c(O)c(O)c1 35.1%
O=C(CSc1nnnn1C1CCCCC1)Nc1ccccc1F 0.977%
CCC[C@@H]1CC(C(=O)NC(C2O[C@H](SC)C(OP(=O)(O)O)[C@H](O)[C@H]2O)[C@H](C)Cl)N(C)C1 (stereo partly specified) -1.4%
O=C(CSc1nc2ccccc2c(=O)n1Cc1ccco1)NCc1ccccc1 0.741%
COc1ccc(N2CCN(c3oc(COc4ccc(Cl)cc4Cl)nc3C#N)CC2)cc1 14.5%
COc1cccc(-c2nc(CC(=O)O)cs2)c1OC -0.615%
COc1cccc(CNC(=O)COC(=O)CCCNC(=O)c2ccc(Cl)cc2)c1 -0.0138%
Cc1cc(NC(=O)c2cc(-c3cccc(Cl)c3)on2)nn1Cc1ccc(Cl)cc1 2.54%
O=C(Nc1ccc(S(=O)(=O)Nc2nccs2)cc1)c1ccncc1 3.43%
COc1cc(/C=C2\C(=O)NN(c3ccc(C)cc3)C2=O)cc([N+](=O)[O-])c1O -21.9%

Potency, active:
O=C(O)C1Nc2c(O)cc(Cl)c([N+](=O)[O-])c2C2C=CCC12 (stereo unspecified) 3.16 µM

Potency, inconclusive:
O=C(O)c1cc(N/N=C/c2ccc(-c3ccccc3)cc2)ccc1Cl 35.5 µM [inhibitor, single point]
O=C(NNC(=S)NCc1ccccc1)c1cccc([N+](=O)[O-])c1 10 µM [inhibitor, partial curve]
Cc1cc(C)n2nc(C(=O)OCC(=O)c3cc(C)n(C)c3C)nc2n1 25.1 µM [inhibitor, single point]
O=Cc1cn(CC(=O)N2CCCc3ccccc32)c2ccccc12 35.5 µM [inhibitor, single point]
Cc1ccc(/C=N/n2c(-c3ccco3)n[nH]c2=S)cc1 35.5 µM [inhibitor, single point]
O=C(COC(=O)CCc1ccc(S(=O)(=O)N2CCOCC2)cc1)Nc1ccccc1[N+](=O)[O-] 35.5 µM [inhibitor, single point]
Cc1ccc(-c2cnc(SCCNC(=O)c3ccco3)[nH]2)cc1 17.8 µM [inhibitor, single point]
N#Cc1ccsc1NC(=O)CN1CCN(c2ccc(O)cc2)CC1 35.5 µM [inhibitor, single point]
CCCCCCC(C)n1[nH]c(=O)c2c(C)cc(C)nc21 (stereo unspecified) 15.8 µM [inhibitor, single point]
Cc1cc2c(cc1C)NC(CC(=O)Nc1ccccc1)C(=O)N2 (stereo unspecified) 11.2 µM [inhibitor, partial curve]
CCN1CCN(C(=S)Nc2sc(C)c(-c3ccccc3)c2C(=O)OC)CC1 31.6 µM [inhibitor, single point]
CCOC(=O)c1c(C)[nH]c(C(=O)COC(=O)COc2ccccc2C=O)c1C 35.5 µM [inhibitor, single point]
Cc1c(Cc2ccccc2)sc(NC(=O)/C=C/c2cccc3ccccc23)c1C(N)=O 35.5 µM [inhibitor, single point]
COc1ccc(CNS(=O)(=O)c2cccc(S(=O)(=O)N3CCOCC3)c2)cc1 35.5 µM [inhibitor, single point]
COc1cc2c(cc1OC)C(Cc1ccc(O)cc1)N(C)CC2 (stereo unspecified) 20 µM [inhibitor, single point]
NS(=O)(=O)c1ccc(CCNC(=O)COC(=O)/C=C/c2cc(Br)ccc2F)cc1 4.47 µM [inhibitor, single point]
CCCCC1(C)OC(=O)C(=Cc2ccc(-c3ccc(Cl)c(C(=O)O)c3)o2)C(=O)O1 (stereo unspecified) 12.6 µM [inhibitor, partial curve]
Cn1c(N2CCN(c3ccccn3)CC2)nc2c1c(=O)n(Cc1ccc(Cl)cc1)c(=O)n2C 11.2 µM [inhibitor, partial curve]
COc1ccc(C(C#N)=C2C=CC(=NO)c3ccccc32)cc1 35.5 µM [inhibitor, single point]
CCOC(=O)c1cnc(-n2nc(C)cc2C)nc1NNc1ncc(-c2ccccc2)cn1 11.2 µM [inhibitor, partial curve]
CC1CCCN(C2=C(NS(=O)(=O)c3ccc(Cl)cc3)C(=O)c3ccccc3C2=O)C1 (stereo unspecified) 14.1 µM [inhibitor, partial curve]
Cc1ccc(C)c(Nc2cc(C(=O)NCc3cccnc3)c3ccccc3n2)c1 10 µM [inhibitor, partial curve]
Nc1c(NCCN2CCOCC2)c2ccccc2oc1=O 22.4 µM [inhibitor, single point]
CC(=O)Nc1ccc(-n2c(CCC(=O)O)ccc2-c2ccc(Br)cc2)cc1 35.5 µM [inhibitor, single point]
CNC(=S)N/N=C/c1ccc(C(C)C)cc1 35.5 µM [inhibitor, single point]
COc1cc(NC(=O)c2ccccn2)cc(OC)c1OC 25.1 µM [inhibitor, single point]
CCCSc1nsc(NC(=O)C(c2ccccc2)c2ccccc2)n1 14.1 µM [inhibitor, single point]
COc1ccc(Br)cc1/C=N/Nc1ccc(Cl)c(C(=O)O)c1 11.2 µM [inhibitor, partial curve]
